Several values for one entry are separate records, joined by “and”; a condition that tells them apart may be missing. Identical values can stand only once. Among all 360,000 compounds or so, about 16,000 (4.4%) were called active. The shares of active, inactive and inconclusive entries below differ from those in the screen. Calls come from the whole dose curve; as a rule, active = well fitted inhibition curve with a large enough effect; inconclusive = small, poorly fitted or top-dose-only effect; inactive = no such curve, though single readings can be large or run the other way. Where the call is inconclusive, the potency comes from a doubtful curve fit.
biological target: Bromodomain adjacent to zinc finger domain protein 2B (Homo sapiens) (UniProt Q9UIF8); test: qHTS Assay for Inhibitors of BAZ2B; conditions: AlphaScreen BAZ2B-H3K14Ac peptide displacement; series mostly up to 114 µM; note: nearly all actives have a fitted effect of over 60% in size
Procedure, shortened: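 AlphaScreen displacement of biotin-H3(5-23)K14Ac peptide (50 nM final) from BAZ2B (50 nM final) in PBS pH 7.4, 0.01% Tween-20; complex preformed 30 min RT, then compounds (top 110 uM) 30 min RT, beads 20 min dark.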
Potency is the fitted concentration of half-maximal effect; tags give direction and shape of the fitted curve.

Sequence of UniProt Q9UIF8 (Q9UIF8 whole entry, looked up, the tested form may be a part): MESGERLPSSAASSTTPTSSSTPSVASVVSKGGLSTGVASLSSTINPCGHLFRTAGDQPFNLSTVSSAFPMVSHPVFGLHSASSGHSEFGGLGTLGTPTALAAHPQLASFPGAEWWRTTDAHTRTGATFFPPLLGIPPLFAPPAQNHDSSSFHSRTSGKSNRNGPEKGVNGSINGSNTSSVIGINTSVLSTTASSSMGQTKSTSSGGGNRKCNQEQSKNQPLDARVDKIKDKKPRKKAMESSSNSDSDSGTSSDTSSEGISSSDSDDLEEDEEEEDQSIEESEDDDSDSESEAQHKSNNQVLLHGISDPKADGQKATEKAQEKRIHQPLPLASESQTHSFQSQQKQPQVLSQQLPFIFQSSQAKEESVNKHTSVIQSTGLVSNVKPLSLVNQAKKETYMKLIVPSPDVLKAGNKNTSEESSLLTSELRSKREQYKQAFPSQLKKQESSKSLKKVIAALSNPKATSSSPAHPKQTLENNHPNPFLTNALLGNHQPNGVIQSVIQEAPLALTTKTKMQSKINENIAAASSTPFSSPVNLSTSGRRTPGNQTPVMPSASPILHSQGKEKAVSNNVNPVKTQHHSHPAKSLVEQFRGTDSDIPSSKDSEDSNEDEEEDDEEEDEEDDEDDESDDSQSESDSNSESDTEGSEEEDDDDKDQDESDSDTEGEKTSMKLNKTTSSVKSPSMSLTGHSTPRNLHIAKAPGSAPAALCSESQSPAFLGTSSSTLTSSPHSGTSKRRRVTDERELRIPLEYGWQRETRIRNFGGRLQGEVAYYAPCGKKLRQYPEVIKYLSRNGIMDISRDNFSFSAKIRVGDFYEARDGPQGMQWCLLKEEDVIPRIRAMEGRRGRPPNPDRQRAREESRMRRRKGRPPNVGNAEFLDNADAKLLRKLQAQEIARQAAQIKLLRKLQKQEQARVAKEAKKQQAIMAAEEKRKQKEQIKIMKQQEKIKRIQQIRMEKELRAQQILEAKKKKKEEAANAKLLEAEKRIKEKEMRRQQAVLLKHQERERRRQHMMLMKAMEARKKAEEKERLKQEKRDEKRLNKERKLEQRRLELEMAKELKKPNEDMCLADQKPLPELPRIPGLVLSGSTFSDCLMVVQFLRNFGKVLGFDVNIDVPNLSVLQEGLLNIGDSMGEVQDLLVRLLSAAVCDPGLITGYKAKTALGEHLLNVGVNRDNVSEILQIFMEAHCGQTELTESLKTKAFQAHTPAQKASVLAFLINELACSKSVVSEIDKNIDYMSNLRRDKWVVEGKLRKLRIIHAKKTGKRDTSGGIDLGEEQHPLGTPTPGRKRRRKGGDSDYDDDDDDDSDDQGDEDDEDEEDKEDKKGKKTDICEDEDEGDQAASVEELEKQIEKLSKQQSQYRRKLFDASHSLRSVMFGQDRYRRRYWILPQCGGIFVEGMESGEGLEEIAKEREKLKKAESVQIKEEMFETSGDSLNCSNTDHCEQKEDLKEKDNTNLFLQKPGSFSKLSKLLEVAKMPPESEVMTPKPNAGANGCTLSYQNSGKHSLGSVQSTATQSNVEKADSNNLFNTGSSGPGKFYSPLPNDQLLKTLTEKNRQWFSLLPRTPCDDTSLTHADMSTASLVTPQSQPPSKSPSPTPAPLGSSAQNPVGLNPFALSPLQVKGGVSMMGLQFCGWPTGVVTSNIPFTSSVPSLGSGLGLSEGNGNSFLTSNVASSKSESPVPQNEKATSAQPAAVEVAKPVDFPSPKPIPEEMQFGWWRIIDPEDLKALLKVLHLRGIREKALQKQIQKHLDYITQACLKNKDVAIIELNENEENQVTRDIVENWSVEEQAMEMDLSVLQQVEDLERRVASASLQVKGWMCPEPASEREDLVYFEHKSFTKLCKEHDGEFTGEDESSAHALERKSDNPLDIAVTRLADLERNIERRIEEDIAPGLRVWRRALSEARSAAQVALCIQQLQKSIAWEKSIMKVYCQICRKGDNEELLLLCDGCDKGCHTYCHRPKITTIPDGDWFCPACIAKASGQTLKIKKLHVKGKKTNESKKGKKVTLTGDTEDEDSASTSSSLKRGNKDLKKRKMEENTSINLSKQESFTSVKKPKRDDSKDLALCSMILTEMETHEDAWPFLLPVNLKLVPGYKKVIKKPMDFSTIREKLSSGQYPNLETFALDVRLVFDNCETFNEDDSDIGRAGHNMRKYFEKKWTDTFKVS

Compound	Potency
COc1nccnc1NS(=O)(=O)c1ccc(N=Cc2c(C)[nH]n(-c3ccccc3)c2=O)cc1	inconclusive: 50.1 µM [inhibitor, partial curve]
N=c1c2c(ncn1Cc1ccco1)Oc1ccc3ccccc3c1C2c1ccccc1 (stereo unspecified)	active: 44.7 µM
COc1ccc(CCn2c(=O)[nH]c3cc(C(=O)N4CCN(c5ccccn5)CC4)ccc3c2=O)cc1OC	inconclusive: 3.98 µM [inhibitor, single point]
CCCN(Cc1nnc(-c2cccs2)o1)C(=O)CN1C(=O)NC2(CCCCC2C)C1=O (stereo unspecified)	inactive
COc1cc(OC)cc(-c2ncc3ccccn23)c1	active: 31.6 µM
COc1cc(/C=N/NC(=O)c2csc3c2CCCC3)ccc1OCCN1CCOCC1	inconclusive: 79.4 µM [inhibitor, single point]
CC1CN(c2nc3c(c(=O)n(Cc4ccc(Cl)c(Cl)c4)c(=O)n3C)n2C)CC(C)O1 (stereo unspecified)	inconclusive: 79.4 µM [inhibitor, single point]
CCc1ccc(C(=O)c2cnc3ccc(OC)cc3c2N2CCN(CC)CC2)cc1	active: 50.1 µM
CC1CCCN(CCCOc2ccc(Br)cc2Cl)C1 (stereo unspecified)	inconclusive: 79.4 µM [inhibitor, partial curve]
CC(C)n1c(=S)[nH]c2scc(-c3cccs3)c2c1=O	active: 50.1 µM
Cn1c(N=Nc2ccccc2)nc2ccccc21	active: 50.1 µM
Cc1ccc(C)c(NC(=O)COc2coc(CN3CCc4ccccc43)cc2=O)c1	inconclusive: 44.7 µM [inhibitor, partial curve]
Oc1ccc(CN2CCCc3ccccc32)c2cccnc12	active: 35.5 µM
COC(=O)C1=C(CSc2nc3ccccc3o2)NC(=O)NC1c1cc(C)ccc1C (stereo unspecified)	inconclusive: 63.1 µM [inhibitor, single point]
C=CCNCCCCOc1ccc(C)cc1[N+](=O)[O-]	active: 56.2 µM
CCOc1ccc(-n2c(Cc3cc(=O)[nH]c(=O)[nH]3)nnc2SC(C)C)cc1	inactive
CCc1ccc(-c2csc3ncn(CC(=O)NCc4ccco4)c(=O)c23)cc1	inconclusive: 50.1 µM [inhibitor, partial curve]
COc1cccc(-n2ccnc2SCC(=O)Nc2ccccc2)c1	inconclusive: 79.4 µM [inhibitor, single point]
CN(C(=O)CSc1nc2c(c(=O)[nH]1)CCCC2)c1ccccc1	inactive
COc1ccc(N/N=C(/C(C)=O)N2CCCc3ccccc32)cc1	inconclusive: 35.5 µM [inhibitor, partial curve]
CNC(=O)N/N=C(\N)c1ccccn1	inconclusive: 89.1 µM [inhibitor, single point]
CCOc1ccc(S(=O)(=O)N2CCN(c3c(C)cccc3C)CC2)c2ccccc12	inactive
CC(=O)Nc1ccc(S(=O)(=O)N[C@@H](C)C(=O)N2CCN(C/C=C/c3ccccc3)CC2)cc1	inactive
COc1ccc(-c2nc(SCC(=O)Nc3ccc4c(c3)OCO4)c(-c3ccc(OC)cc3)[nH]2)cc1	active: 79.4 µM
CC(NC(=O)Nc1ccccc1C(F)(F)F)c1c(-n2cccc2)sc2c1CCCC2 (stereo unspecified)	inactive
CCN(CC)c1ccc(/C=N/NC(=O)Cc2ccc(OC)c(OC)c2)cc1	inconclusive: 50.1 µM [inhibitor, partial curve]

Compound	Potency
Fc1ccc(-c2nnc3sc(C4COc5ccccc5O4)nn23)cc1 (stereo unspecified)	inactive
CCOC(=O)c1ccc(N2CSC3=C(C#N)C(c4cccs4)CC(=O)N3C2)cc1 (stereo unspecified)	active: 44.7 µM
Cc1cc(C)nc(NS(=O)(=O)c2ccc(NS(=O)(=O)c3ccccc3)cc2)n1	inconclusive: 39.8 µM [inhibitor, single point]
Cc1cc2ccccn2c1C(=O)c1ccc([N+](=O)[O-])cc1[N+](=O)[O-]	active: 25.1 µM
O=C1CN(C(=O)CNCc2ccccc2)c2ccccc2N1	active: 50.1 µM
CC1=CN2C(=N)/C(=C/c3ccc([N+](=O)[O-])o3)C(=O)N=C2S1	active: 44.7 µM
S=C1NC[C@H](CC2CCCCC2)N1CC1CCCCC1	inconclusive: 70.8 µM [inhibitor, single point]
Cc1cccc(NC(=O)CSc2nc3c([nH]c4ccccc43)c(=O)n2C)c1C	inactive
COc1ccccc1OCCCCCCN1CCOCC1	active: 50.1 µM
CCC(=O)NC(c1cc(Cl)c2cccnc2c1O)C1CC1 (stereo unspecified)	active: 39.8 µM and active: 31.6 µM
O=C(Cc1ccccc1)Nc1sc2c(c1C(=O)Nc1ccc(Cl)cc1)CCCC2	inconclusive: 50.1 µM [inhibitor, partial curve]
Cc1cnc(C(=O)OCC(=O)Nc2oc(-c3ccccc3)c(-c3ccccc3)c2C#N)cn1	inactive
Cc1c(C(=O)O)cccc1-c1ccc(/C=N/n2cnnc2)o1	active: 79.4 µM
Cc1c(CN2CC[C@@H](N3CCN(c4ccccn4)CC3)[C@H](O)C2)[nH]c2ccc(F)cc12	inconclusive: 50.1 µM [inhibitor, partial curve]
Cc1ccc(S(=O)(=O)CCC(=O)OCC(=O)c2cc(C)n(C)c2C)cc1	inconclusive: 89.1 µM [inhibitor, single point]
O=C(O)CCCNC(=O)/C=C/c1ccco1	active: 12.6 µM
Cc1cc(C)cc(NC(=O)C2CCN(C(=O)[C@@H]3Cc4ccccc4CN3)CC2)c1	inconclusive: 70.8 µM [inhibitor, single point]
COc1ccc2c(c1OC)C(=O)OC2Nc1nc(-c2ccc(-c3ccccc3)cc2)cs1 (stereo unspecified)	inconclusive: 56.2 µM [inhibitor, partial curve]
Cc1ccc2c(c1)CCCN2C(=O)Nc1ccc2c(c1)OCO2	inconclusive: 89.1 µM [inhibitor, single point]
Cc1ccc(-c2n[nH]c(Cc3ccccc3)n2)cc1	inactive
CN(Cc1ccccc1)C(=O)c1ccc(NC(=O)Cc2cccc(NC(=O)C3CCCN(C(=O)C4CCCCC4)C3)c2)cc1 (stereo unspecified)	inactive
Cc1ccc(S(=O)(=O)CC(=O)Nc2sc3c(c2C#N)CCCCC3)cc1	inactive
CCc1nnc(NS(=O)(=O)c2ccc(N/C=C\C(=O)c3ccc4ccccc4c3)cc2)s1	inconclusive: 89.1 µM [inhibitor, single point]
O=C(N/N=C/c1ccncc1)c1cc(-c2ccc(Br)s2)[nH]n1	inconclusive: 50.1 µM [inhibitor, partial curve]
CCC1CSC(Nc2ccc(C(=O)/C=C/c3ccc(Br)cc3)cc2)=N1 (stereo unspecified)	inconclusive: 56.2 µM [inhibitor, partial curve]
Cc1nc(SCC(=O)Nc2cc(Cl)ccc2[N+](=O)[O-])nc(C)c1C	active: 39.8 µM

Compound	Potency
O=C(NNC(=O)c1cnccn1)c1ccc(Cl)cc1	inconclusive: 20 µM [inhibitor, full curve]
CCOc1ccc(C(=O)Nc2ccccc2C(=O)O)cc1	inconclusive: 89.1 µM [inhibitor, partial curve]
COc1cc(C(=S)N2CCCC2)cc(Cl)c1OCC(=O)Nc1ccc(C)cc1C	inconclusive: 56.2 µM [inhibitor, single point]
COc1cc(Cl)c(C)cc1NC(=O)CSc1ncc(S(=O)(=O)c2ccc(C(C)(C)C)cc2)c(=O)[nH]1	active: 25.1 µM
Cn1c2ccccc2c2c(C(=O)N3CCN(c4ccc(F)cc4)CC3)cn(C3CCCCC3)c(=O)c21	inactive
O=C1Nc2ccc(S(=O)(=O)Nc3ccccc3O)c3cccc1c23	inactive
Cc1ccc(NC(=O)CSC2=NN3CCCC(=O)N=C3S2)c(C)c1	inconclusive: 79.4 µM [inhibitor, single point]
CC(=O)C(C(C)=O)c1c(Cl)c(O)c(O)c2c(C(=O)c3ccccc3)coc12	active: 44.7 µM
O=C(CSc1nnc(COc2ccccc2)o1)NCCc1ccccc1	inactive
Cc1ccccc1-c1nc(CS(=O)(=O)CC(=O)N2CCN(c3ccccc3)CC2)c(C)o1	inconclusive: 50.1 µM [inhibitor, partial curve]
CCN(CC)c1ccc(NS(=O)(=O)c2ccc(-c3ccc(=O)[nH]n3)o2)c(C)c1	inconclusive: 79.4 µM [inhibitor, single point]
Cn1c(=O)cc(OCCCC(=O)Nc2ccc(F)cc2)c2ccccc21	inactive
CCn1c(CC(=O)Nc2ccc(C)cc2)n[nH]c1=S	inconclusive: 3.55 µM [inhibitor, single point]
O=[N+]([O-])c1ccc(Cl)c(S(=O)(=O)N2CCCCCC2)c1	inconclusive: 44.7 µM [inhibitor, partial curve]
COC(=O)c1ccc2c(CCO)c[nH]c2c1	inactive
Cc1cnn(-c2ccc3nnc(-c4ccc(Cl)cc4)n3n2)c1	inactive
CCC(CC)c1nnc(NC(=O)c2ccc([N+](=O)[O-])cc2)s1	inactive
COc1cc(C2N=C(N)Nc3nc4ccccc4n32)ccc1OCCC(C)C (stereo unspecified)	inconclusive: 89.1 µM [inhibitor, single point]
Cc1ccc(NC(=S)NC(=O)c2sc3ccccc3c2Cl)c(C(=O)O)c1	active: 50.1 µM
CCC(=O)N1CCc2cc(Br)cc(S(=O)(=O)N3CCCC(C(=O)Nc4cccc(Cl)c4C)C3)c21 (stereo unspecified)	inactive
S=C1SCN(Cc2ccccn2)CN1Cc1ccco1	active: 17.8 µM
CCCC(=O)Nc1nnc(-c2ccc(Cl)s2)o1	inconclusive: 89.1 µM [inhibitor, single point]
Cn1sccc1=O	inactive
CCOc1cccc(CC(=O)N2CCc3c([nH]c4ccccc34)C2c2ccc(F)cc2)c1OCC (stereo unspecified)	inconclusive: 25.1 µM [inhibitor, full curve, poor fit]

— PubChem BioAssay AID504333 (National Center for Advancing Translational Sciences (NCATS), 2011)
